Laboratory results from PubChem BioAssay AID1745853 (National Center for Advancing Translational Sciences (NCATS), 2022).
The other results are listed elsewhere or left out. Shown are side measurements of this screen, not its main read-out; they come without a call.

Assays:
Experiment in all cases: Primary Screen for Target Class Profiling of Small Molecule Inhibitors of Methyltransferases
[1] = target: Glycine N-methyltransferase (Homo sapiens) (UniProt Q14749); settings: purified enzyme, MTase-Glo SAH luminescence; measured here: GNMT inhibition; at 40 µM; stronger effect = lower value
Outline: (§1)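 Each enzyme was reacted with SAM and its substrate, with compounds tested once at 40 uM; SAH formed was read by MTase-Glo luminescence.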

[2] = target: Guanidinoacetate N-methyltransferase (Homo sapiens) (UniProt Q14353); settings: purified enzyme, MTase-Glo SAH luminescence; measured here: GAMT inhibition; at 40 µM; stronger effect = lower value
Outline: as §1

[3] = target: Histamine N-methyltransferase (Homo sapiens) (UniProt P50135); settings: purified enzyme, MTase-Glo SAH luminescence; measured here: HNMT inhibition; at 40 µM; stronger effect = lower value
Outline: as §1

[4] = target: Nicotinamide N-methyltransferase (Homo sapiens) (UniProt P40261); settings: purified enzyme, MTase-Glo SAH luminescence; measured here: NNMT inhibition; at 40 µM; stronger effect = lower value
Outline: as §1

[5] = target: Phenylethanolamine N-methyltransferase (Homo sapiens) (UniProt P11086); settings: purified enzyme, MTase-Glo SAH luminescence; measured here: PNMT inhibition; at 40 µM; stronger effect = lower value
Outline: as §1
% is scaled to controls: 0 for no effect and ±100 for the full control effect.

SMILES	activity change, negative = inhibition [1]	activity change, negative = inhibition [2]	activity change, negative = inhibition [3]	activity change, negative = inhibition [4]	activity change, negative = inhibition [5]
CCCn1c(=O)c2ccc(C(=O)NC3CCCC3)cc2n2c(=O)n(Cc3ccccc3)nc12	-6.54%	-0.424%	0.138%	-1.78%	-2.24%
COC(=O)c1ncn2c1C(=O)N(Cc1ccc(Cl)cc1)C(C)(C(=O)NC1CCCC1)C2 (stereo not drawn)	3.3%	5.7%	-0.268%	3.79%	-1.45%
COC(=O)[C@@H]1Cc2ncn(Cc3ccc(Cl)cc3)c2CN1Cc1cccnc1	-7.46%	-0.861%	-4.54%	-2.69%	-8.11%
O=C1c2ccccc2-c2nc3nnnn3nc21 (tested in a mixture with another compound)		-92.4%		-77%	-14.8%
CC(=O)NCCNc1nc2c(-c3cccc(Br)c3)nnn2c2ccccc12	-8.09%	0%	8.72%	5.11%	0.288%
COCC1CN(C)CC12CCN(Cc1ccc(Br)o1)CC2 (stereo not drawn)	-6.79%	-5.93%	-6.64%	-9.15%	-7.46%
CCCn1c(=O)c2cc(F)ccc2n2c(SCC(=O)N(C)c3ccccc3)nnc12	-3.21%	0%	4.8%	-10.7%	1.87%
CCOc1ccc(S(=O)(=O)NCc2ccncc2)cc1	-6.8%	4.7%	1.53%	8.28%	-2.31%
CCC(C)(C)C1CCc2c(sc(NC(=O)c3ccc(Br)cc3)c2C#N)C1 (stereo not drawn)	6.4%	-1.12%	8.39%	-14%	-3.54%
CC1CCCC(NC(=O)C2(C)Cn3c(cc4occc43)C(=O)N2c2ccc(Cl)cc2)C1C (stereo not drawn)	-3.12%	2.18%	-0.792%	-5.54%	-7.74%
Cc1noc(C)c1-c1cc2c(cc(C)n2C)c(N2CCN(c3ccccn3)CC2)n1	-11%	-1.33%	-7.23%	-8.51%	-0.181%
COc1ccccc1NC(=O)c1sc(=S)n2c1[nH]c(=O)c1cc(Cl)ccc12	-17.4%	0%	0.743%	-4.7%	-13.1%
COc1ccc(-c2cc3n(n2)CC(C)(C(=O)NCc2ccccc2)N(CCc2cccs2)C3=O)cc1 (stereo not drawn)	4.1%	0%	3.45%	7.3%	0.391%
Cc1noc(C)c1[S+](=O)([O-])N1CCC2(CC1)Cc1ccccc1NC2=O	-12.7%	-12.3%	-4.67%	-20.8%	-16.3%
CC(C)NC(=O)c1ccccc1OCC1CCCN(Cc2ccncc2F)C1 (stereo not drawn)	-2.88%	-1.57%	-1.54%	-11%	-4.17%
CCCC1(CO)CCCN(Cc2cnn(-c3cccc(F)c3)c2)C1 (stereo not drawn)	-1.75%	-6.05%	-7.69%	-4.35%	-4.67%
C[C@@H]1O[C@@H](O[C@H]2[C@H](O[C@H]3CC[C@@]4(C)C(CC[C@]5(C)C4CC=C4[C@@H]6CC(C)(C)CC[C@]6(C(=O)O)CC[C@]45C)[C@]3(C)CO)OC[C@H](O)[C@@H]2O)[C@H](O)[C@H](O[C@@H]2OC[C@@H](O)[C@H](O)[C@H]2O)[C@H]1O (stereo partly drawn)	5.48%	-7.46%	1.36%	-19.1%	3.25%
Cn1nc(C2CC2)cc1NC(=O)C(C)(C)C	-7.09%	-12%	-5.66%	-15.1%	-11.3%
COc1ccc(NC(=O)N2CCc3c(nc4cc(-c5ccccc5)[nH]n4c3=O)C2)c(OC)c1	-11.4%	-7%	-13.6%	-7.79%	4.99%
Cn1c(=O)n(C)c2cc(S(=O)(=O)Nc3ccc(Br)cc3)ccc21	-13.6%	1.43%	-7.51%	2.37%	-10.5%

SMILES	activity change, negative = inhibition [1]	activity change, negative = inhibition [2]	activity change, negative = inhibition [3]	activity change, negative = inhibition [4]	activity change, negative = inhibition [5]
O=C(NCc1ccco1)Nc1cccc(-c2ccc(N3CCCC3)nn2)c1	-26.1%	-6.81%	-23.8%	-6.5%	-12.6%
Cc1noc2c(NC3CCOCC3)cc(-c3ccsc3)nc12	-20.1%	-17.7%	-28%	-31.3%	-25.3%
CCCn1c(=O)c2ccc(C(=O)NC3CCCC3)cc2n2c(=O)n(CC(=O)c3cccc(OC)c3)nc12	4.17%	0%	3.45%	-0.237%	0.418%
COc1ccc2c(c1)c(NC(C)=O)c1n2CC(C)(C(=O)NC2CCCCCC2)N(CCC(C)C)C1=O (stereo not drawn)	3.44%	4.72%	5.54%	6.25%	-0.165%
COc1ccc(CN2CCc3ncc(C(=O)NCc4ccc5c(c4)OCO5)n3CC2)cn1	-10.1%	-12%	-6.23%	-21.2%	-13.8%
CSc1ccc(CCNC(=O)CCn2ccc3cc(S(=O)(=O)N4CCCC4)ccc32)cc1	2.72%	0%	4.61%	-1.06%	2.82%
CCCN1C(=O)c2c(C(=O)NCc3ccc(OC)cc3)ncn2CC1(C)C(=O)NCCC(C)C (stereo not drawn)	-2.03%	1.99%	-0.517%	-0.361%	2.27%
O=S(=O)(c1cccnc1)N1CCC(N(Cc2cccnc2)C2CCOCC2)CC1	-0.022%	0.505%	2.26%	-1.85%	-0.981%
COc1cc(C(N)=O)nc(-c2ccccn2)c1O	-13.9%	-14.4%	-2.86%	-26.6%	-6.5%
CCCNC(=O)N(C1CCOCC1)C1CCN(C(=O)CCC(=O)c2ccc(F)cc2)CC1	23.6%	-4.71%	-1.62%	-3.47%	-7.68%
COc1ccc(CNC(=O)c2cc3n(n2)CC(C)(C(=O)NCCC(C)C)N(C)C3=O)c(OC)c1 (stereo not drawn)	2.37%	0%	1.53%	-3.97%	1.85%
O=C(CCC[C@@H]1[C@H]2CCCN3CCC[C@@H](CN1C(=O)c1ccccc1F)[C@@H]23)N1CCOCC1	-1.02%	-1.97%	-1.04%	-7.75%	3.58%
C(#Cc1cccc(CN2CCOCC2)c1)CCN1CCCCC1	6.1%	4.66%	-4.76%	-10.2%	1.6%
CN1[C@@H]2CC[C@H]1CC(NC(=O)n1c(=O)[nH]c3ccccc31)C2 (stereo partly drawn)	-7.5%	3.81%	-11.4%	-19.4%	-14%
CN1C(=O)c2cc(C(=O)NCc3ccc(F)cc3)nn2CC1(C)C(=O)NCc1ccc(F)cc1 (stereo not drawn)	7.09%	0%	2.87%	7.2%	0.393%
Cc1noc(C)c1CCNC(=O)c1cc2n(n1)CC(C)(C(=O)NCc1ccc(F)cc1)N(C)C2=O (stereo not drawn)	-0.742%	2.09%	1.95%	-4.77%	-4.75%
CC(C)CCn1c(=O)c2ccccc2n2c(SCC(=O)NCc3ccccc3Cl)nnc12	2.87%	0.493%	7.08%	-1.99%	5.87%
CCOC(=O)c1ccc(NC(=O)N2CCn3c(C)ccc3C2CC)cc1 (stereo not drawn)	-1.55%	2.21%	1.93%	-4.24%	-1.74%
O=C(NCc1ccc(Cl)cc1)C1CC(=O)N(c2n[nH]c3cccc(F)c23)C1 (stereo not drawn)	-1.47%	2.77%	3.96%	-3.25%	12.4%
COCCOC1CCOC2(CCN(C(=O)CCCc3ccccc3)CC2)C1 (stereo not drawn)	-0.15%	4.65%	2.06%	-4.05%	16.6%

SMILES	activity change, negative = inhibition [1]	activity change, negative = inhibition [2]	activity change, negative = inhibition [3]	activity change, negative = inhibition [4]	activity change, negative = inhibition [5]
COc1ccccc1CN1C(=O)c2ccc(-c3ccco3)n2CC1(C)C(=O)NC1CCCC1 (stereo not drawn)	-11.1%	-11.5%	-0.446%	-11%	-8.86%
CC(C)Cn1c(=O)c2ccccc2n2c(=O)n(CC(=O)c3cccc(Cl)c3)nc12	2.84%	0.867%	6.61%	-35.2%	3.3%
O=S(=O)(N[C@H]1CO[C@H]2[C@@H]1OC[C@@H]2n1nnnc1Oc1cccc(N2CCOCC2)c1)c1cccs1	-2.28%	-3.64%	-1.82%	-4.61%	-0.581%
CC(C)OCCCn1c(=O)c2ccccc2n2c(CCC(=O)N3CCN(c4ccc(F)cc4)CC3)nnc12	-10.6%	0%	1.89%	-2.5%	2.68%
CC1(C(=O)NC2CCCCCC2)Cc2ccccc2C(=O)N1Cc1cccnc1 (stereo not drawn)	0.057%	0%	12.1%	13.3%	4.32%
CSc1cccc(N2C(=O)c3cc(-c4cccs4)nn3CC2(C)C(=O)NC2CCCCCC2)c1 (stereo not drawn)	3.08%	0%	6.74%	3.05%	0.843%
O=C(Cc1ccsc1)N1CCC2(CC1)N=C(c1ccccc1)NO2	-4.67%	-3.35%	-3.51%	-7.4%	-1.84%
CC(C)OCCCn1c(=O)c2ccccc2n2c(CCC(=O)N3CCN(c4cccc(Cl)c4)CC3)nnc12	-16%	0.56%	-2.37%	-33.2%	-6.34%
COc1cccc(CN2C(=O)c3ccc(-c4ccco4)n3CC2(C)C(=O)NC2CCC(C)CC2)c1 (stereo not drawn)	-0.916%	4.97%	-1.28%	-6.53%	-0.236%
CCC(C)NC(=O)c1ccc2c(=O)n(CC(C)C)c3nn(Cc4cccc(F)c4)c(=O)n3c2c1 (stereo not drawn)	-4.87%	4.28%	-0.015%	-4.47%	1.38%
COc1cc(N2CCN(C(C)=O)CC2)ccc1Nc1ncc(Cl)c(Nc2ccc(N3CCN(C(C)=O)CC3)cc2OC)n1	-34.1%	0.608%	-29%	-35.5%	-21.1%
CC1CCC2C(C)(C)[C@@H](O)CC[C@]2(C)C12Cc1c(O)cc3c(c1O2)CN(C(CCC(=O)O)C(=O)O)C3=O (stereo partly drawn)	2.5%	3.71%	6.68%	-6.64%	-5.22%
COc1ccc(-c2nnn3c2nc(N2CCC(C)CC2)c2ccccc23)cc1	-4.09%	3.3%	-2.02%	-6.76%	-5.19%
COC1C(OC(=O)/C=C/C=C/C=C/C=C/C(=O)O)CCC2(CO2)C1C1(C)OC1CC=C(C)C (stereo not drawn)	1.95%	5.58%	7.01%	-6.88%	-4.19%
COc1ccc2cc3n(c2c1)CC(C)(C(=O)NC1CCCCC1)N(Cc1ccccc1Cl)C3=O (stereo not drawn)	0.692%	0%	3.01%	3.27%	2.12%
CC[C@@H](Nc1c(Nc2cccc(C(=O)N(C)C)c2O)c(=O)c1=O)c1ccc(C)o1	-1.32%	-5.39%	6.59%	-18.1%	-1.87%
CC(C)Cn1c(=O)c2ccccc2n2c(SCc3ccc(Cl)cc3)nnc12	-2%	1.46%	3.21%	-3.72%	4.38%
COC(=O)[C@@H]1Cc2ncn(Cc3ccc(Cl)cc3)c2CN1S(=O)(=O)c1cccs1	-47.9%	-5.73%	-4.79%	-19.1%	-5.56%
NCc1ccc(Nc2ncc(F)c(Nc3ccccc3)n2)cc1	-7.8%	0.892%	-1.14%	-24.2%	-5.52%
